Over roughly 110,000 compounds, “z-score” has its median near -0.1; the highest 2% begin near 2. Some of the results follow.
Each compound was assayed against Metabotropic glutamate receptor 8 (Rattus norvegicus) (UniProt P70579) (assay: mGluR8 Gi/Go-coupled signaling modulation – cell-based, rat, thallium flux, HTS, primary screen (AID 488969)). Conditions: HEK293 rat mGluR8, GIRK (G protein-gated inwardly rectifying potassium channel) thallium flux, FluoZin2; at 10 µM; stronger effect = higher value; submaximal glutamate (EC20) added with thallium.
Chain of UniProt P70579 (P70579 whole entry, looked up): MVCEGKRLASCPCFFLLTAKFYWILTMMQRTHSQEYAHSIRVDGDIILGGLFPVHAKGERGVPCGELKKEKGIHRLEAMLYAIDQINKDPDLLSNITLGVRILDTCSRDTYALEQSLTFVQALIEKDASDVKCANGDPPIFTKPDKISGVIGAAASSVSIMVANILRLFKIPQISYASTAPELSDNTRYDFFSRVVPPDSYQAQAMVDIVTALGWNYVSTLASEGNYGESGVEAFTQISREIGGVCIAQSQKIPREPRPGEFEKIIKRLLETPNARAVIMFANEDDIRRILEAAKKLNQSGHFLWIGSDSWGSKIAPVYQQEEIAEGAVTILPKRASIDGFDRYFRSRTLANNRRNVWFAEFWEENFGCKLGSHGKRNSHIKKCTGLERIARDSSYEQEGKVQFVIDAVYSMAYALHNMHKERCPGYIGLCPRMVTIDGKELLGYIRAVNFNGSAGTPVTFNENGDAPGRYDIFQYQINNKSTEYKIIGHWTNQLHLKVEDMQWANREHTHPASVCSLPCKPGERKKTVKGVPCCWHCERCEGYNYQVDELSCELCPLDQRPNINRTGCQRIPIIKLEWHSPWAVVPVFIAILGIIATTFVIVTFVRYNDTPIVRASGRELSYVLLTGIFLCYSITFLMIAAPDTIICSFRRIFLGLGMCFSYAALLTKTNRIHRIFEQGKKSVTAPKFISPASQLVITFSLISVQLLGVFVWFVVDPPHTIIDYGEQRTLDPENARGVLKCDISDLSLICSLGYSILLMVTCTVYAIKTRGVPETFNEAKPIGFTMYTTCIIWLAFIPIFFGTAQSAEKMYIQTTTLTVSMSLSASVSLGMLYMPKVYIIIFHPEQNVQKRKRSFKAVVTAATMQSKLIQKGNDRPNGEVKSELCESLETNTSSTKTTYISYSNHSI

| Structure (SMILES) | z-score |
| --- | --- |
| O=C(CSc1nnnn1-c1cccc2ccccc12)Nc1ccc(N2CCOCC2)c(Cl)c1 | 0.0404 |
| O=C1C(=C(c2ccccc2)c2ccccc2)Nc2ccccc21 | -1.32 |
| O=C(Nc1ccccc1Cl)N1CCN(C/C=C/c2ccccc2)CC1 | 0.262 |
| Cc1cccc(-c2nc(CSCC(=O)N3CCN(c4ccccn4)CC3)c(C)o2)c1 | -1.37 |
| NC(=O)c1ccc(NC(=O)COC(=O)/C=C/c2cn(-c3ccccc3)nc2-c2cccnc2)cc1 | -0.0296 |
| Cc1cc(C(=O)CN2C(=O)NC(C)(CC(C)C)C2=O)c(C)n1-c1ccc2c(c1)OCO2 (stereo not drawn) | -0.498 |
| CC12CC(c3ccccc3O1)C(/C(N)=N/NC(=O)c1ccc(F)cc1)C(=O)N2 (stereo not drawn) | 0.232 |
| COc1ccc(CCNC(=O)CN(C)S(=O)(=O)c2ccc3c(c2)CCC(=O)N3)cc1OC | 0.121 |
| CCN(CC)S(=O)(=O)c1ccc(Cl)c(C(=O)NCc2ccccc2Cl)c1 | -0.702 |
| c1ccc2c(SCc3cn4cccnc4n3)ncnc2c1 | -0.316 |
| O=C1S/C(=C\c2ccccn2)C(=O)N1Cc1ccccc1F | -0.204 |
| O=[N+]([O-])c1cc(S(=O)(=O)Nc2ccccc2)ccc1NCc1ccccc1 | -0.187 |
| Cc1nc2c3ccccc3n(CC(=O)c3ccc(F)cc3)c(=O)n2n1 | -0.2 |
| O=C(Nc1nc(-c2ccccc2)cs1)c1ccc2c(c1)S(=O)(=O)c1ccccc1C2=O | 0.0399 |
| CN(CC(=O)OCC(=O)c1c(N)n(C)c(=O)n(C)c1=O)S(=O)(=O)c1ccc(Cl)cc1 | -0.168 |
| CC(=O)N(c1ccc(Cl)cc1)c1c[nH]c2ccccc12 | -0.182 |
| O=C(c1cccc(F)c1)N1CCN(c2cccc(Cl)c2)CC1 | -0.373 |
| Cc1ccc(/C=C/C(=O)NC(=S)Nc2ccccc2C(=O)NC2CCCCC2)cc1 | -0.161 |
| CCOC(=O)c1c(C)[nH]c(C)c1C(=O)COC(=O)/C=C/c1cccc(F)c1 | -0.6 |
| CCOC(=O)c1c(C)c(C(=O)N2CCN(C(=O)c3ccco3)CC2)c(C)n1C | -0.146 |
| [N-]=[N+]=CC(=O)c1ccnc(C(=O)C=[N+]=[N-])c1 | 0.693 |
| Cc1ccc(OCCN2CCCCCC2)c(C)c1 | -0.124 |
| CCC(=O)Nc1cccc(NC(=O)CN2CCN(c3ccccc3OC)CC2)c1 | -0.00996 |

| Structure (SMILES) | z-score |
| --- | --- |
| CCOC(=O)CSc1ncnc2c1sc1nc(N3CCOCC3)c3c(c12)CCCC3 | -0.922 |
| CCOc1ccc(C(=O)NCC(=O)OCC(=O)Nc2ccccc2OCC)cc1 | -0.192 |
| CS(=O)(=O)N1CCN(c2ccc(NC(=O)Cc3ccccc3)cc2)CC1 | -0.115 |
| O=C(OCC(=O)N1CCCc2ccccc21)c1cnc(Cl)c(Cl)c1 | -0.558 |
| CC12CN3CCN(CC(C3)C1(O)CN1CCCCC1)C2 (stereo not drawn) | 1.24 |
| Cc1c(C(=O)N2CCc3ccccc3C2)sc2nc(-c3ccccc3)cn12 | -0.414 |
| NC(=O)C1(NC(=O)[C@@H]2CC3(CC(c4cccc(NC(=O)[C@@H]5CCC(=O)N5)c4)=NO3)CN2C(=O)c2cnccn2)CC1 (stereo partly drawn) | -0.226 |
| O=C(CNc1ccc2ccccc2c1)N/N=C/C=C/c1cccc([N+](=O)[O-])c1 | -0.239 |
| O=C(Nc1ccccc1C(=O)O)c1ccc(Cl)c(S(=O)(=O)N2CCOCC2)c1 | -1.65 |
| COc1cccc(NC(=O)C(Sc2nnc3ccccn23)c2ccccc2)c1 (stereo not drawn) | -0.184 |
| CCOC(=O)C(Cc1ccccc1)NC(=O)Cn1nnc(-c2ccccc2)n1 (stereo not drawn) | 1.79 |
| COc1ccc(Oc2coc3cc(OC(=O)/C=C/c4ccccc4)ccc3c2=O)cc1 | -0.00706 |
| COc1ccccc1NC(=O)CCC(=O)c1ccc(-c2ccccc2)cc1 | -0.159 |
| O=C(c1ccccc1)N(Cc1cccs1)C1CCS(=O)(=O)C1 (stereo not drawn) | 0.358 |
| NS(=O)(=O)c1cccc(NC(=O)COC(=O)C2(c3cccc(F)c3)CCCC2)c1 | 0.0402 |
| O=C(NCN1CCN(CCO)CC1)c1cnccn1 | -0.0242 |
| C=CCn1c(Cc2csc(N)n2)nnc1SCC(=O)OCC | 0.666 |
| COc1cccc(CC(NC(C)=O)C(=O)NC2CCN(S(=O)(=O)c3ccc4ccccc4c3)CC2)c1 (stereo not drawn) | -0.102 |
| CCCCNC(=O)C(C#N)c1nc2ccccc2nc1N1CCN(c2ccccc2F)CC1 (stereo not drawn) | 0.299 |
| COc1ccc(OC)c(C(=O)c2coc3ccc(OC)cc23)c1 | -0.303 |
| CC(C)Sc1nc2ccccc2n1CC(N)=O | 0.432 |
| Cc1nc2ccc(C(=O)N3CCSCC3)cc2s1 | 0.882 |
| CCNc1ccc(S(N)(=O)=O)cc1[N+](=O)[O-] | -0.06 |

| Structure (SMILES) | z-score |
| --- | --- |
| O=C1c2ccccc2C(Nc2ccc(S(=O)(=O)N3CCCCC3)cc2)N1c1ccccn1 (stereo not drawn) | -0.00712 |
| C#CCNc1c(C)c(C)nc2ncnn12 | 0.697 |
| CN(C)CCOC(=O)C12CC3(C)CC(C)(CC(C)(C3)C1)C2 | 1.1 |
| O=c1[nH]c2ccccc2n1Cc1ccccc1 | 0.106 |
| Cc1c(C#N)c(N)nc2c3c(sc12)NC(=O)CC3c1ccc(F)cc1 (stereo not drawn) | 0.762 |
| O=C(OCCN1C(=O)c2cccc3c(N4CCOCC4)ccc(c23)C1=O)c1ccccc1Cl | -0.723 |
| COc1ccc(C(C[N+](=O)[O-])c2c(-c3ccccc3)cc3ccccn23)c(OC)c1 (stereo not drawn) | -0.493 |
| O=C(Nc1ccc(-c2csc(-c3ccccc3)n2)cc1)c1ccccc1 | -0.0473 |
| OCCNCC1(O)C2CC3CC(C2)CC1C3 (stereo not drawn) | 0.157 |
| COc1ccc(CN2CCN(C(=O)CC(C)C)CC2)c(OC)c1OC | -0.112 |
| Cn1nnnc1SCC(=O)Nc1ccc(Oc2ccc(Cl)cc2)cc1 | -0.515 |
| COc1ccc(S(=O)(=O)NCCSCc2ccco2)cc1Cl | -0.151 |
| CC(C)(C)NC(=O)C(=O)NCCC1=CCCCC1 | -0.42 |
| S=c1[nH]nc(-c2ccccc2)n1/N=C/c1c[nH]c2ccccc12 | -0.681 |
| CC1(C)CCc2nc(SCc3ccccc3)c(C#N)cc2C1 | 0.224 |
| COc1nc(NC(C)=O)nc(C)c1Br | 0.00324 |
| O=C(NC(C(=O)c1ccccc1)n1c(=O)cc[nH]c1=S)c1ccccc1 (stereo not drawn) | -0.361 |
| CC(c1ccco1)N(C(=O)c1ccc(Cl)s1)c1ccccn1 (stereo not drawn) | 0.635 |
| C/C(CC1CC(C)(C)OC1=O)=N/Nc1nc(-c2ccccc2)cs1 (stereo not drawn) | 0.992 |
| Cc1ccc(S(=O)(=O)N2CCN(C(=O)N3CCOCC3)C2C)cc1 (stereo not drawn) | 0.328 |
| COc1ccccc1NC(=O)c1ccc(S(=O)(=O)N(C)C)cc1 | -0.403 |
| CC1CCN(C(=O)c2ccc(CSc3ccc(Cl)cc3)cc2)CC1 | 0.015 |

— PubChem BioAssay AID488969 (Vanderbilt High Throughput Screening Facility, 2010)
